Molecules are shown by their SMILES. Where “and” joins values, the source holds several entries; their conditions need not be identical. Equal entries are not always repeated.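 The compound was tested at five concentrations on cells cultured in 96-well plates, with a 48-hour exposure period. Here, GI50 denotes the concentration required for 50% inhibition of growth.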 Calls of active or inactive are those of the source. Cut-off read from the data, not from the text of the source: active = GI50 up to about 1.1 µM and inactive = higher.

These results are taken from ChEMBL document CHEMBL1201862, “PubChem BioAssay data set” (2004).

This assay relates to NCI-H322M. Briefly: NCI-60 cell line screen, 48 h.
For the molecule `CCOC(=O)c1c(NC(=O)c2ccc(Br)cc2)sc2c1CCCC2`, the GI50 was inactive: > 100 µM.

In the case of `OC(CBr)C(O)C(O)C(O)CBr` (centres undefined), the GI50 is inactive: > 100 µM and inactive: > 80.2 µM.

For the molecule `COC(=O)C1(C)CCCC2(C)c3cc(OC)ccc3C(=O)C(Br)C12` (centres undefined), the GI50 is inactive: > 10 µM.

On to `Cc1ccc(/C=c2\c(=O)[nH]c3nc4ccccc4c(=O)n23)cc1`, for which the GI50 was inactive: 49.1 µM.

Consider `O=C1NC(NCc2ccc(F)cc2)=N/C1=C\c1ccccc1Cl`, for which the GI50 is inactive: 16.2 µM.

As for `N#CC1C(=O)NC(=O)C1=O` (centres undefined), the GI50 is inactive: > 100 µM.

With `CCOC(=O)c1c(C)nc2c3ccccc3c(C#N)c(C)n12`, the GI50 was inactive: > 100 µM.

Consider `CC(=O)/C(=C\c1cccc([N+](=O)[O-])c1)C(=O)Nc1ccccc1C`, for which the GI50 was inactive: > 100 µM.

For the molecule `COC(=O)C(C(=O)C(=O)Nc1ccc([N+](=O)[O-])cc1)c1nc2ccc([N+](=O)[O-])cc2nc1O` (centres undefined), the GI50 was inactive: > 100 µM.

On to `COc1ccc(-c2c(C3=NCCCN3)nnn2-c2ccccc2)cc1`, for which the GI50 is inactive: > 100 µM.

In the case of `O=C1CSC2(CC(/C=C/c3cccc(Br)c3)=NN2c2cccc(S(=O)(=O)O)c2)N1c1nc2ccccc2s1` (centres undefined), the GI50 is inactive: > 100 µM.

For the molecule `CCOC(=O)C1=c2[nH]c3cccc4cccc(c43)n2C=C(C(C)=O)C1CC(C)=O` (centres undefined), the GI50 was inactive: > 100 µM.

For `NC(=O)c1nnsc1N/N=C/c1ccc([N+](=O)[O-])cc1`, the GI50 is inactive: 94 µM.

In the case of `O=C1CCC2(CC1)SCCCS2`, the GI50 was inactive: > 100 µM.

Turning to `Cn1cnc(C(N)=[Se])c1N`, the GI50 was active: 0.344 µM.

Turning to `COc1cc(/C=C2\C(=O)N(C(=O)c3ccc(NC(C)=O)cc3)N=C2C)ccc1O`, the GI50 was inactive: > 100 µM.

In the case of `COC(=O)C1=CC2OC1(C)C1(CC1)C2=O` (centres undefined), the GI50 is inactive: 34.6 µM.

Consider `O=[N+]([O-])c1cccc(C(O)/C(=N/O)c2nc3ccc(Cl)cc3nc2O)c1` (centres undefined), for which the GI50 was inactive: > 100 µM.

For `CCN(CC)CC1CCCCN1CC(=O)N1CC(C)C(=O)Nc2ccccc21` (centres undefined), the GI50 is inactive: > 100 µM.

As to `BrC(Br)=C1C(=C(Br)Br)C(Br)C1Br` (centres undefined), the GI50 is inactive: 2.07 µM.

On to `Cc1cn(C2C=CC(COP(=O)(OCC3=CC(=O)c4ccccc4C3=O)N(C)CCCCCl)O2)c(=O)[nH]c1=O` (centres undefined), for which the GI50 was inactive: 7.52 µM.

In the case of `COc1ccc(C2C(C(=O)O)=C(CO)Oc3cc4c(cc32)OCO4)c(OC)c1` (centres undefined), the GI50 is inactive: > 100 µM.

Turning to `CC1(C)CCc2cc3c(-c4ccccc4)cc(=O)oc3cc2O1`, the GI50 is inactive: > 100 µM.

`O=C1C=Cc2c(-c3ccccc3)oc3cccc1c23`: the GI50 is inactive: 31.8 µM.

For `C#CC1(O)CCC2[C@@H]3CCc4cc(Oc5nc(F)nc(-c6c(C)c(C(=O)OCC)n7ccccc67)n5)ccc4C3CC[C@@]21C` (some centres undefined), the GI50 is inactive: > 100 µM.

For `CCOC(=O)NC(Nc1ccc(F)c(F)c1)(C(=O)OCC)C(F)(F)F` (centres undefined), the GI50 is inactive: > 100 µM.

On to `COC1C(O)CC(OC2CC(OC3CC(O[C@@H]4C(=O)c5c(cc6cc(OC7CC(OC8CC(O)C(O)C(C)O8)C(O)C(C)O7)c(C)c(O)c6c5O)C[C@H]4[C@H](OC)C(=O)[C@@H](O)[C@@H](C)O)OC(C)C3O)OC(C)C2O)OC1C` (some centres undefined), for which the GI50 is active: < 0.0135 µM.

Take `CCc1ccccc1NNc1cc(=O)[nH]c(=O)[nH]1`: the GI50 is inactive: 22.8 µM.

Turning to `COC(=O)c1c(O)ccc2c1c1cc3ccccc3c(O)c1n2CCc1ccc(OC)c(OC)c1`, the GI50 was inactive: > 100 µM.

Regarding `O=[N+]([O-])/C(C(Cl)=C(Cl)Cl)=C(\Nc1cccc2ccccc12)Sc1ccccc1`, the GI50 is inactive: 19.8 µM.

For `NC1=C(N2CCCCC2)C(=O)NC2=N/C(=C\c3ccccc3)C(=O)N21`, the GI50 was inactive: > 100 µM.

As to `CSc1nc2c(c(O)c(C)c(=O)n2C2OC(COC(C)=O)C(OC(C)=O)C(OC(C)=O)C2OC(C)=O)c(=O)n1C` (centres undefined), the GI50 is inactive: > 100 µM.

Consider `N#Cc1nc2cc(Cl)ccc2nc1N1CCN(c2ccc([N+](=O)[O-])cc2)CC1`, for which the GI50 was inactive: > 100 µM.

On to `S=c1c2ccccc2c(=S)n2n1CC=CC2`, for which the GI50 is inactive: > 100 µM.

With `CCOC(=O)[C-]([N+]#N)[Si](C)(C)C`, the GI50 was inactive: 16 µM.

As for `COc1ccc(CNc2nc3ccccc3nc2-c2cccs2)cc1OC`, the GI50 is inactive: 76.2 µM.

Consider `CCc1n[nH]c(=O)n1N`, for which the GI50 is inactive: > 100 µM.

In the case of `CS(=O)(=O)OCCN1CCN(C(=O)c2cccc3c(Nc4ccc(S(N)(=O)=O)cc4)c4ccccc4nc23)CC1`, the GI50 was inactive: > 100 µM.

As to `CN(C)CCn1nc(N)c2nc3cc(C(F)(F)F)ccc3nc21`, the GI50 is inactive: > 100 µM.

Consider `C1CCN2CC3CCCN4CCCC(C2C1)C34` (centres undefined), for which the GI50 was inactive: > 100 µM.

With `N/C(=N\n1c(=S)[nH]c2ccccc2c1=O)Nn1c(=S)[nH]c2ccccc2c1=O`, the GI50 is inactive: > 100 µM.

Take `COc1ccc2cc(CNCCCCCCNCc3ccc4cc(OC)ccc4c3)ccc2c1`: the GI50 was active: 0.774 µM.

With `O=C(c1cccs1)N(C(=S)N1CCN(c2ccccn2)CC1)C1CCCCC1`, the GI50 is inactive: > 100 µM.

`CC(C)(C)c1cc(-c2cc(C(C)(C)C)n(-c3ccccc3)n2)nn1-c1ccccc1`: the GI50 is inactive: > 100 µM.

For `O=[N+]([O-])c1ccc(C2NC(=S)NC3c4cc([N+](=O)[O-])ccc4CCCC23)cc1` (centres undefined), the GI50 is inactive: > 100 µM.

Consider `N=C1OC(c2cccc(Cl)c2)C(NNS(=O)(=O)c2ccccc2)=C1O` (centres undefined), for which the GI50 is inactive: > 100 µM.

Turning to `COc1ccc(NC(=O)C2C(=O)N(c3ccc(OC)cc3)C(=O)/C2=N/O)cc1` (centres undefined), the GI50 is inactive: 25.8 µM.

With `COC(=O)C(=O)C(C(=O)OC)C(=O)C(=O)Nc1c(Cl)cc([N+](=O)[O-])cc1Cl` (centres undefined), the GI50 was inactive: 50.5 µM.

Take `COC(=O)C1=C(C)NC(CF)=C(C(=O)OC)C1c1cccc2c(=O)c3ccccc3oc12` (centres undefined): the GI50 is inactive: 13.9 µM.

In the case of `Clc1cc(Cl)nc(Nc2ccc3c(c2)CCC3)n1`, the GI50 is inactive: 25.9 µM.

In the case of `CCNc1nc(N)c(C(=O)c2cccs2)s1`, the GI50 was inactive: 17.6 µM.

With `COc1ccc(NS(=O)(=O)c2ccc(NC(NC(=O)CC(C)C)(C(F)(F)F)C(F)(F)F)cc2)nn1`, the GI50 was inactive: > 100 µM.

`O=C(O)Cc1ccc2nc(COC(=O)c3ccccc3)sc2c1`: the GI50 was inactive: > 100 µM.

As for `O=C1OC(=O)C2CCCC3CCCC1C32` (centres undefined), the GI50 was inactive: > 100 µM.

Consider `CC(C)C(/N=C1\CC2CCC1(C(=O)Nc1ccccc1O)C2(C)C)c1ccccc1` (centres undefined), for which the GI50 is inactive: > 10 µM.

Turning to `O=C(NCCCC/N=c1/cccccc1NCCCCNC(=O)OCc1ccccc1)OCc1ccccc1`, the GI50 was inactive: 23.8 µM.

As for `NC(=O)c1[nH]nc(C2OC(CO)C(O)C2O)c1O` (centres undefined), the GI50 is inactive: 2.43 µM.

For `Nc1ccc(C(=O)O)c2[nH]c3ccccc3c(=O)c12`, the GI50 is inactive: > 100 µM.

On to `COc1ccc(-n2/c(=N/C(=S)N(C)C)ss/c2=N\C(=S)N(C)C)cc1`, for which the GI50 is inactive: > 100 µM.

With `COc1ccc(CCN2COc3ccc4ccc(=O)oc4c3C2)cc1OC`, the GI50 was inactive: > 100 µM.

As to `OC12c3ccccc3C3CCC4(OCCO4)C3C1c1ccccc12` (centres undefined), the GI50 is inactive: > 100 µM.

Take `CCCCCCCCCCCC(=O)OCC1OC(n2cc(F)c(=O)[nH]c2=O)C(NC(=O)OCc2ccccc2)C(OC(=O)CCCCCCCCCCC)C1O` (centres undefined): the GI50 was inactive: > 100 µM.

`OC[C@]1(n2nc3ccccc3n2)OC[C@@H]1c1ccccc1`: the GI50 is inactive: > 100 µM.

`COc1ccc2c(c1)C(=O)C1(C2)[C@H](c2ccccc2)C2C(=O)c3cc(OC)ccc3C2[C@H]1c1ccccc1` (some centres undefined): the GI50 was inactive: > 100 µM.

On to `COC(=O)C1(C#N)C(C)(C)N=C(c2ccccc2)C12CCCCC2` (centres undefined), for which the GI50 was inactive: > 100 µM.

Consider `COc1c(C)c(C/C=C(\C)CC/C=C(\C)CC/C=C(\C)CCC=C(C)C)c(OC)c(OC)c1OC`, for which the GI50 is inactive: > 100 µM.

With `Cc1ccc2[nH]c3c(c2c1)C1CCC(C(C)(C)C)CC1C1C(=O)N(c2ccc(Oc4ccccc4)cc2)C(=O)C31` (centres undefined), the GI50 was inactive: > 74.3 µM.

On to `COc1ccc2c(c1)O[C@@H]1c3ccc(OC)cc3OC[C@H]21`, for which the GI50 is inactive: > 100 µM.

Turning to `COC(=O)/C=C\C(C#N)(C#N)/N=C/c1ccccc1`, the GI50 is inactive: 17.1 µM.

Turning to `COC(=O)/C=c1/c2ccccc2n2nc3ccccc3c12`, the GI50 is inactive: 34.1 µM.

Turning to `O=[N+]([O-])c1ccc2nc(/C(=N/Nc3ccccc3)C(O)c3ccc(Cl)cc3Cl)c(O)nc2c1` (centres undefined), the GI50 is inactive: > 100 µM.

Regarding `O=C(/C=C/c1ccccc1)NC1C=Nc2ccc(Cl)cc2NC1=O` (centres undefined), the GI50 was inactive: 36.1 µM.

As for `CCCCCCCCCCCCCCCCOP(=O)(O)OP(=O)(O)OCC1OC(n2cnc3c(N)ncnc32)C(O)C1O` (centres undefined), the GI50 is inactive: > 100 µM.

For the molecule `C=C1C(C[C@@H]2O[C@H]3C[C@H]4O[C@@]5(C[C@@H]6O[C@]7(C[C@H](C)[C@@H]8O[C@@H]9CC(C(O)CO)O[C@@H]9C[C@@H]8O7)C[C@H](C)[C@@H]6O5)C[C@H]4O[C@H]3[C@H](C)[C@H]2O)O[C@@H](CC[C@@H]2O[C@@H](CC[C@@]34CC5O[C@H]6C(O[C@H]7CC[C@H](CC(=O)OC)O[C@@H]7[C@@H]6O3)[C@H]5O4)CC2=C)C[C@H]1C` (some centres undefined), the GI50 was active: 0.000273 µM.

As for `CC1CC2CC(=O)CC3(C1)C2CCCN3CCCO` (centres undefined), the GI50 is inactive: > 100 µM.

Consider `C=C1C2CC(OC(C)=O)C3(C)C(c4ccoc4)OC(=O)[C@@H](O)[C@]13OC1C[C@H](OC(C)=O)C(C)(C)[C@H](CC(=O)OC)[C@]12C` (some centres undefined), for which the GI50 was inactive: > 100 µM.

In the case of `Nc1nc(OCC2CCCCC2)c2nc[nH]c2n1`, the GI50 is inactive: 21.2 µM.

As to `Cc1ccc(S(=O)(=O)NC(=O)NCCc2c[nH]cn2)cc1`, the GI50 is inactive: > 100 µM.

Consider `O=C(O)c1c(Br)c(Br)c(Br)c(Br)c1C1c2ccc(O)cc2Oc2cc(O)ccc21`, for which the GI50 was inactive: > 100 µM.
